The supplement of paper PMC12645437, “Orthogonal IMiD-Degron Pairs Induce Selective Protein Degradation in Cells” (ACS Chemical Biology, 2025)
The other results are listed elsewhere or left out.

Molecular target: no compound (DMSO)
Test: log2 fold change of degron read counts, EGFP-low vs EGFP+ sorted cells; higher = lower degron-EGFP level without compound (poor expression or instability)
Details: compound: DMSO control; 18 h
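Also: jurkat cells carrying a lentiviral library of mutant zinc finger degrons fused to EGFP plus mCherry, mCherry+ cells FACS sorted, degron abundance counted by next-generation sequencing.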

Q: FCCPICGRDFTQKGNLLRHIKL was tested. Which “log2 fold change of degron read counts” value did it give?
A: The value was -0.107.

Q: Which “log2 fold change of degron read counts” value does the source give for FQCNQCGHSFTQKGNLLRHIKL here?
A: The value was -0.67.

Q: For FACEICGRVFTQKGNLLRHIKL, which “log2 fold change of degron read counts” value is on record?
A: Its value is -0.855.

Q: For FFCSVCGHMFTQKGNLLRHIKL, which “log2 fold change of degron read counts” value is on record?
A: Its value is 1.17.

Q: How did the “log2 fold change of degron read counts” value turn out when FQCEICGREFTQKGNLLRHIKL was run?
A: Its value is -2.9.

Q: FDCSVCGHNFTQKGNLLRHIKL was tested. Which “log2 fold change of degron read counts” value did it give?
A: Its value is -0.0516.

Q: FICSVCGHHFTQKGNLLRHIKL was tested. Which “log2 fold change of degron read counts” value did it give?
A: The value was -0.141.

Q: For FCCNVCGAYFTQKGNLLRHIKL, which “log2 fold change of degron read counts” value is on record?
A: Its value is 0.291.

Q: For FFCDQCGAYFTQKGNLLRHIKL, which “log2 fold change of degron read counts” value is on record?
A: The value was -0.305.

Q: Which “log2 fold change of degron read counts” value does the source give for FTCEVCGAKFTQKGNLLRHIKL here?
A: The value was -2.06.

Q: For FRCNQCGAKFTQKGNLLRHIKL, which “log2 fold change of degron read counts” value is on record?
A: Its value is -0.122.

Q: How did the “log2 fold change of degron read counts” value turn out when FCCDICGAHFTQKGNLLRHIKL was run?
A: The value was -1.73.

Q: For FKCNQCGRMFTQKGNLLRHIKL, which “log2 fold change of degron read counts” value is on record?
A: The value was -0.487.

Q: How did the “log2 fold change of degron read counts” value turn out when FGCNVCGASFTQKGNLLRHIKL was run?
A: The value was -1.52.

Q: With FWCEVCGAHFTQKGNLLRHIKL as the sequence, how does the “log2 fold change of degron read counts” value read?
A: Its value is -0.475.

Q: FQCPVCGAAFTQKGNLLRHIKL was tested. Which “log2 fold change of degron read counts” value did it give?
A: Its value is -0.0157.

Q: How did the “log2 fold change of degron read counts” value turn out when FTCPICGADFTQKGNLLRHIKL was run?
A: The value was -0.755.

Q: With FFCEVCGAFFTQKGNLLRHIKL as the sequence, how does the “log2 fold change of degron read counts” value read?
A: Its value is -0.242.

Q: With LKCEICGFKCTQKGNLLRHIKL as the sequence, how does the “log2 fold change of degron read counts” value read?
A: The value was -0.342.

Q: With FQCEVCGAEFTQKGNLLRHIKL as the sequence, how does the “log2 fold change of degron read counts” value read?
A: Its value is -2.26.

Q: How did the “log2 fold change of degron read counts” value turn out when FACNQCGRTFTQKGNLLRHIKL was run?
A: Its value is -0.584.

Q: Which “log2 fold change of degron read counts” value does the source give for FRCDQCGANFTQKGNLLRHIKL here?
A: The value was -1.4.

Q: How did the “log2 fold change of degron read counts” value turn out when FRCDQCGAVFTQKGNLLRHIKL was run?
A: Its value is -2.25.

Q: Which “log2 fold change of degron read counts” value does the source give for LLCPICGFWCTQKGNLLRHIKL here?
A: The value was 2.11.

Q: Which “log2 fold change of degron read counts” value does the source give for LICNQCGFRCTQKGNLLRHIKL here?
A: The value was 1.16.

Q: Which “log2 fold change of degron read counts” value does the source give for FVCEVCGATFTQKGNLLRHIKL here?
A: The value was -1.89.

Q: With FYCEICGAEFTQKGNLLRHIKL as the sequence, how does the “log2 fold change of degron read counts” value read?
A: The value was -2.36.

Q: With FMCNQCGHHFTQKGNLLRHIKL as the sequence, how does the “log2 fold change of degron read counts” value read?
A: The value was -0.366.

Q: For FNCNQCGARFTQKGNLLRHIKL, which “log2 fold change of degron read counts” value is on record?
A: The value was 0.012.

Q: With FFCEICGHTFTQKGNLLRHIKL as the sequence, how does the “log2 fold change of degron read counts” value read?
A: The value was -0.924.

Q: FYCEICGREFTQKGNLLRHIKL was tested. Which “log2 fold change of degron read counts” value did it give?
A: Its value is -1.52.

Q: FQCNVCGAMFTQKGNLLRHIKL was tested. Which “log2 fold change of degron read counts” value did it give?
A: The value was -1.27.
